# Reference: paper PMC9911399, “Two distinct binding modes provide the RNA-binding protein RbFox with extraordinary sequence specificity”
# Residue numbers refer to the chain shown, from its start. Some of the results follow.
# T1: RBFOX1 RRM RbFoxmut (Fox-RRM*) (Homo sapiens, UniProt Q9NWB1 109-208, R118D;E147R;N151S;E152T)
# T1 sequence: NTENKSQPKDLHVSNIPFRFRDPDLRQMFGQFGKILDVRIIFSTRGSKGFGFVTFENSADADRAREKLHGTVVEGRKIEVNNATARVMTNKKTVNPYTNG
# B1: UGACGAU (DNA:RNA)
# RNA: GGGAGACCGGAAUUCAGAUUGUCCUGACGAUUUAAAUCCCGUCGUAGCCACCA
# DNA 1: CAATCTGAATTCCGGTCTCCC
# DNA 2: TGGTGGCTACGACGGGATT
# B2: CCGAUGU (DNA:RNA)
# RNA: B1 RNA with U25C, G26C, A27G, C28A, G29U, A30G
# DNA 1: CAATCTGAATTCCGGTCTCCC
# DNA 2: TGGTGGCTACGACGGGATT
# B3: AUUCAUU (DNA:RNA)
# RNA: B1 RNA with U25A, G26U, A27U, G29A, A30U
# DNA 1: CAATCTGAATTCCGGTCTCCC
# DNA 2: TGGTGGCTACGACGGGATT
# B4: CUCUCGA (DNA:RNA)
# RNA: GGGAGACCGGAAUUCAGAUUGUCCCUCUCGAUUAAAUCCCGUCGUAGCCACCA
# DNA 1: CAATCTGAATTCCGGTCTCCC
# DNA 2: TGGTGGCTACGACGGGATT
# B5: AGUGAAA (DNA:RNA)
# RNA: B1 RNA with U25A, A27U, C28G, G29A, U31A
# DNA 1: CAATCTGAATTCCGGTCTCCC
# DNA 2: TGGTGGCTACGACGGGATT
# B6: ACUGGCU (DNA:RNA)
# RNA: B1 RNA with U25A, G26C, A27U, C28G, A30C
# DNA 1: CAATCTGAATTCCGGTCTCCC
# DNA 2: TGGTGGCTACGACGGGATT
# B7: AGCAUAG (DNA:RNA)
# RNA: B1 RNA with U25A, A27C, C28A, G29U, U31G
# DNA 1: CAATCTGAATTCCGGTCTCCC
# DNA 2: TGGTGGCTACGACGGGATT
# B8: GGUGACG (DNA:RNA)
# RNA: B1 RNA with U25G, A27U, C28G, G29A, A30C, U31G
# DNA 1: CAATCTGAATTCCGGTCTCCC
# DNA 2: TGGTGGCTACGACGGGATT
# B9: CCGGUGG (DNA:RNA)
# RNA: B4 RNA with U26C, C27G, U28G, C29U, A31G
# DNA 1: CAATCTGAATTCCGGTCTCCC
# DNA 2: TGGTGGCTACGACGGGATT
# Target: T1, RBFOX1 RRM RbFoxmut (Fox-RRM*)
# Test: EMSA; HiTS-Eq, 1 nM pool, 10 min; buffer printed only for the single-RNA assays: 10 mM Tris pH 7.5, 150 mM NaCl, 3.4 mM EDTA, 0.001% NP-40, 30 C
# Details: tags: His6 N-terminal (pET28a); label: 5' 32P
# How it was run: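 These values rest on relative association constants, computed from read-count changes of each RNA species versus the control reaction and normalised to the cognate motif. Reads came from free RNA recovered by 8% native PAGE after purified RbFox RRM (wild type or mutant) at increasing concentrations was equilibrated for 10 min in 50 µL with 1 nM of a 5′-radiolabelled pool with 7 randomized nucleotides and DNA-annealed flanks.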
row,Binder,binding signal
1,B1,0.0625 KA relative to UGCAUGU
2,B2,0.103 KA relative to UGCAUGU
3,B3,0.0922 KA relative to UGCAUGU
4,B4,0.0774 KA relative to UGCAUGU
5,B5,0.095 KA relative to UGCAUGU
6,B6,0.125 KA relative to UGCAUGU
7,B7,0.106 KA relative to UGCAUGU
8,B8,0.116 KA relative to UGCAUGU
9,B9,0.0753 KA relative to UGCAUGU
